# Assay results published in PubChem BioAssay AID1745853 (National Center for Advancing Translational Sciences (NCATS), 2022).
# Some of the results follow. Further columns of the screen follow, without active or inactive calls.
# Experiments:
# Assay in all cases: Primary Screen for Target Class Profiling of Small Molecule Inhibitors of Methyltransferases
# [1] = target: Glycine N-methyltransferase (Homo sapiens) (UniProt Q14749); settings: purified enzyme, MTase-Glo SAH luminescence; measured here: GNMT inhibition; at 40 µM; stronger effect = lower value
# Description: (§1) PI: Matthew D. Hall Ph.D. and Quinlin M. Hanson Ph.D.
# (§2) National Center for Advancing Translational Sciences (NCATS)
# (§3) National Institute of Health (NIH), Rockville, MD
# (§4) Target class profiling (TCP) is a chemical biology approach amenable to investigating understudied biological targets. TCP is achieved by developing a generalizable assay platform and applying it to screen a curated set of compound libraries against representative members of a target class. Small molecule methyltransferases (SMMTase) are a subclass of methyltransferase that act on metabolites to modulate signaling pathways, metabolize xenobiotics, or balance the available methyl pool. We screened four curated libraries totaling 27,574 unique compounds against the SMMTases nicotinamide N-methyltransferase (NNMT), phenylethanolamine N-methyltransferase (PNMT), histamine N-methyltransferase (HNMT), glycine N-methyltransferase (GNMT), catechol O-methyltransferase (COMT), and guanidinoacetate N-methyltransferase (GAMT). The data generated by this TCP can be leveraged for informed tool molecule development. For example, in the associated publication we identified a chemotype of HNMT-selective inhibitors. Additionally, we identified a putative SMMTase-selective inhibitor with potential as a tool molecule for studying broader methyltransferase biology.
# (§5) High-through put screening assays were developed at the National Center for Advancing Translational Science (NCATS) for the enzymes NNMT, PNMT, HNMT, GNMT, COMT, and GAMT. Enzymatic activity was measured as a function of SAM cofactor conversion using the MTase Glo kit (Promega) for all enzymes. All assays were performed in 1536-well format with substrates and SAM concentrations at KM values. Enzyme concentration and assay timing were optimized for 10-20% SAM conversion. Initial screening of 27,574 compounds was done as single-point assays using the highest compound concentration (40 uM). […] These compounds were replated in 11-point dose response and assayed against NNMT, PNMT, HNMT, GNMT, COMT, GAMT, and a counter-assay. The IC50 and efficacy (maximal response) values were determined for each dose-response curve. These values are also accounted for in the area under the curve (AUC) values.
# (§6) PROTOCOL TABLE (as described by Inglese J, Shamu CE and Guy RK. 2007)
# (§7) SEQUENCE No. (e.g., 1, 2, 3, etc.); […] (e.g., Cells, Incubation, Reagent, etc.); VALUE; DESCRIPTION.
# (§8) 1; Reagent; 2 uL; SMMTase Enzyme (2x) in reaction buffer, columns 1- 48.
# (§9) 2; Reagent; 1 uL; SAM (4x) in reaction buffer, columns 1-48.
# (§10) 3; Controls; 23 nL; DMSO in column 4; sinefungin in DMSO (0 uM - 40 uM) in 7-point 1:2 dilution series (n = 2) in column 2.
# (§11) 4; Compounds; 23 nL; Columns 5-48.
# (§12) 5; Reagent; 1 uL; Substrate (4x) in reaction buffer, columns 2-48.
# (§13) 6; Time; 20-30 min; Incubation.
# (§14) 7; Reagent; 1 uL; MTase-Glo reagent (5X), columns 1-48.
# (§15) 8; Time; 30 min; Incubation.
# (§16) 9; Reagent; 5 uL; MTase-Glo Detection reagent, columns 1-48.
# (§17) 10; Time; 30 min; Incubation, luminescence evolution.
# (§18) 11; Detection; Luminescence; ViewLux uHTS Microplate Imager (PerkinElmer).
# (§19) NOTES (numbers refer to Sequence numbers above)
# (§20) 1, 2, 5. White Medium Binding Greiner 1536-well plates (Cat #789175-F, Greiner Bio-One, Monroe, NC); Reaction buffer: 50 mM Tris, pH 8.0, 3 mM MgCl2, 1 mM EDTA, 50 mM NaCl, 1 mM DTT, and 0.1 mg/mL BSA. Evaporation was prevented by covering assay plates with metal lids containing holes to allow gas diffusion.
# (§21) 1. Six SMMTase were profiled: HNMT, GNMT, PNMT, COMT, NNMT, GAMT
# (§22) 5. The corresponding substrate was used for each enzyme: HNMT - 5.3 uM Histamine; GNMT - >500 uM Glycine; PNMT - 16.2 uM Norephinephrine; COMT - 13.7 uM Norephinephrine; NNMT - 3.8 uM Nicotinamide; GAMT - 2.5 uM Guanidinoacetate.6, 8, 10. Room temperature
# (§23) 6. Final reaction conditions: 10 nM COMT, 5 uM SAM, 15 uM norepinephrine, 50 mM Tris, pH 8.0, 3 mM MgCl2, 1 mM EDTA, 50 mM NaCl, 1 mM DTT, and 0.1 mg/mL BSA; refer to tables 2 and S1 for specific timing.
# 8. […]
# [2] = target: Guanidinoacetate N-methyltransferase (Homo sapiens) (UniProt Q14353); settings: purified enzyme, MTase-Glo SAH luminescence; measured here: GAMT inhibition; at 40 µM; stronger effect = lower value
# Description: as §1, §2, §3, §4, §5, §6, §7, §8, §9, §10, §11, §12, §13, §14, §15, §16, §17, §18, §19, §20, §21, §22, §23
# 8. […]
# [3] = target: Histamine N-methyltransferase (Homo sapiens) (UniProt P50135); settings: purified enzyme, MTase-Glo SAH luminescence; measured here: HNMT inhibition; at 40 µM; stronger effect = lower value
# Description: as §1, §2, §3, §4, §5, §6, §7, §8, §9, §10, §11, §12, §13, §14, §15, §16, §17, §18, §19, §20, §21, §22, §23
# 8. […]
# [4] = target: Nicotinamide N-methyltransferase (Homo sapiens) (UniProt P40261); settings: purified enzyme, MTase-Glo SAH luminescence; measured here: NNMT inhibition; at 40 µM; stronger effect = lower value
# Description: as §1, §2, §3, §4, §5, §6, §7, §8, §9, §10, §11, §12, §13, §14, §15, §16, §17, §18, §19, §20, §21, §22, §23
# 8. […]
# [5] = target: Phenylethanolamine N-methyltransferase (Homo sapiens) (UniProt P11086); settings: purified enzyme, MTase-Glo SAH luminescence; measured here: PNMT inhibition; at 40 µM; stronger effect = lower value
# Description: as §1, §2, §3, §4, §5, §6, §7, §8, §9, §10, §11, §12, §13, §14, §15, §16, §17, §18, §19, §20, §21, §22, §23
# 8. […]
# % is set by controls: 0 for no effect and ±100 for the full control effect.
smiles,measurement,setting,value
COc1ccc2cc3n(c2c1)CC(C)(C(=O)NC1CCCCCC1)N(CCN1CCCCC1C)C3=O (stereo not given),"activity change, negative = inhibition",[1],6.09%
same,"activity change, negative = inhibition",[2],0.586%
same,"activity change, negative = inhibition",[3],7.53%
same,"activity change, negative = inhibition",[4],4.62%
same,"activity change, negative = inhibition",[5],2.16%
Cc1ccc(CNC(=O)C2(C)Cn3cnc(C(=O)N4CCN(c5ccccc5)CC4)c3C(=O)N2C2CC2)cc1 (stereo not given),"activity change, negative = inhibition",[1],-0.674%
same,"activity change, negative = inhibition",[2],-3.58%
same,"activity change, negative = inhibition",[3],1.81%
same,"activity change, negative = inhibition",[4],-7.75%
same,"activity change, negative = inhibition",[5],-1.38%
COCCNc1nc2c(-c3cccc(Br)c3)nnn2c2ccccc12,"activity change, negative = inhibition",[1],-6.17%
same,"activity change, negative = inhibition",[2],1.68%
same,"activity change, negative = inhibition",[3],1.82%
same,"activity change, negative = inhibition",[4],4.52%
same,"activity change, negative = inhibition",[5],-4.04%
COc1ccc(CC(=O)Nc2ccc3ncnc(N4CCCC4)c3c2)c(Cl)c1,"activity change, negative = inhibition",[1],-17.7%
same,"activity change, negative = inhibition",[2],-11.7%
same,"activity change, negative = inhibition",[3],-86.9%
same,"activity change, negative = inhibition",[4],-49.1%
same,"activity change, negative = inhibition",[5],-15.2%
CCOCCOC1CCN(S(=O)(=O)c2ccc(OC)cc2)CC1,"activity change, negative = inhibition",[1],-4.66%
same,"activity change, negative = inhibition",[2],-5.59%
same,"activity change, negative = inhibition",[3],-4.07%
same,"activity change, negative = inhibition",[4],-7.32%
same,"activity change, negative = inhibition",[5],0.705%
CCCN(CCc1ccsc1)C1CCc2c(O)cccc2C1 (stereo not given),"activity change, negative = inhibition",[1],3.15%
same,"activity change, negative = inhibition",[2],7.29%
same,"activity change, negative = inhibition",[3],-8.84%
same,"activity change, negative = inhibition",[4],-8.12%
same,"activity change, negative = inhibition",[5],-0.813%
CC1(c2noc(-c3cccnc3)n2)CCN(C(=O)CCC(=O)N2CC(=O)Nc3ccccc32)CC1,"activity change, negative = inhibition",[1],-0.77%
same,"activity change, negative = inhibition",[2],3.6%
same,"activity change, negative = inhibition",[3],3.26%
same,"activity change, negative = inhibition",[4],-6.41%
same,"activity change, negative = inhibition",[5],2.21%
O=C(/C=C/c1ccccc1)OCC1=CC[C@@H]2C(C(=O)O)=CO[C@@H](O[C@@H]3O[C@H](CO)[C@@H](O)[C@H](O)[C@H]3O)[C@H]12,"activity change, negative = inhibition",[1],0.944%
same,"activity change, negative = inhibition",[2],-2.94%
same,"activity change, negative = inhibition",[3],3.92%
same,"activity change, negative = inhibition",[4],-14.2%
same,"activity change, negative = inhibition",[5],4.4%
CN1CCCCC1CCNC(=O)c1ccc(N2CCOCC2)nc1 (stereo not given),"activity change, negative = inhibition",[1],2.5%
same,"activity change, negative = inhibition",[2],0.175%
same,"activity change, negative = inhibition",[3],-7.63%
same,"activity change, negative = inhibition",[4],2.94%
same,"activity change, negative = inhibition",[5],4.09%
C[C@]12CCC(=O)C=C1CC[C@@H]1[C@@H]2C(=O)C[C@@]2(C)[C@H]1CC[C@]2(O)C(=O)CO,"activity change, negative = inhibition",[1],-10.8%
same,"activity change, negative = inhibition",[2],1.53%
same,"activity change, negative = inhibition",[3],-2.02%
same,"activity change, negative = inhibition",[4],-7.57%
same,"activity change, negative = inhibition",[5],4.73%
COCCCC/C(=N\OCCN)c1ccc(C(F)(F)F)cc1,"activity change, negative = inhibition",[1],7.17%
same,"activity change, negative = inhibition",[2],13.2%
same,"activity change, negative = inhibition",[3],13.7%
same,"activity change, negative = inhibition",[4],-7.77%
same,"activity change, negative = inhibition",[5],0.542%
CC1(O)CCC2C(C3C1CCC3(C)O)C2(C)C (stereo not given),"activity change, negative = inhibition",[1],0.8%
same,"activity change, negative = inhibition",[2],0.131%
same,"activity change, negative = inhibition",[3],7.72%
same,"activity change, negative = inhibition",[4],-13.6%
same,"activity change, negative = inhibition",[5],3.09%
O=C(O)c1cccc(C2CCCN(C(=O)CCCn3ccnc3)C2)c1 (stereo not given),"activity change, negative = inhibition",[1],-2.94%
same,"activity change, negative = inhibition",[2],-5.05%
same,"activity change, negative = inhibition",[3],-2.14%
same,"activity change, negative = inhibition",[4],-13.9%
same,"activity change, negative = inhibition",[5],9.96%
O=C(O)CNC(=O)CNC(=O)CNC(=O)CSC(=O)c1ccccc1,"activity change, negative = inhibition",[1],-3.9%
same,"activity change, negative = inhibition",[2],-3.27%
same,"activity change, negative = inhibition",[3],8.91%
same,"activity change, negative = inhibition",[4],-11.6%
same,"activity change, negative = inhibition",[5],1.52%
CC1(C=O)CCCC2(C)C1CCC13CC(CO)C(CCC12)C3 (stereo not given),"activity change, negative = inhibition",[1],2.65%
same,"activity change, negative = inhibition",[2],2.93%
same,"activity change, negative = inhibition",[3],-0.118%
same,"activity change, negative = inhibition",[4],-16.8%
same,"activity change, negative = inhibition",[5],-2.54%
C=C1C(=O)OC2/C=C(\C)CC/C=C(\C)CC(OC(C)=O)C12 (stereo not given),"activity change, negative = inhibition",[1],-3.55%
same,"activity change, negative = inhibition",[2],-2.09%
same,"activity change, negative = inhibition",[3],5.77%
same,"activity change, negative = inhibition",[4],-12.8%
same,"activity change, negative = inhibition",[5],-7.83%
C=C1C(=O)OC2C3=C(C)C(=O)CC3C(C)CC(O)C12 (stereo not given),"activity change, negative = inhibition",[1],-4.05%
same,"activity change, negative = inhibition",[2],-7.86%
same,"activity change, negative = inhibition",[3],4.47%
same,"activity change, negative = inhibition",[4],-19.8%
same,"activity change, negative = inhibition",[5],-7.22%
COC(=O)[C@H]1CCCN1C(=O)[C@@H]1[C@@H](NC(=O)Nc2ccc(F)cc2F)CCN1C(=O)c1cccn1C,"activity change, negative = inhibition",[1],-3.57%
same,"activity change, negative = inhibition",[2],-10.2%
same,"activity change, negative = inhibition",[3],-0.431%
same,"activity change, negative = inhibition",[4],-14.8%
same,"activity change, negative = inhibition",[5],-8.52%
CC(=O)c1c(C)nn(CC(=O)NC(C)c2cnn(-c3ccccc3C)c2C)c1C (stereo not given),"activity change, negative = inhibition",[1],0.804%
same,"activity change, negative = inhibition",[2],1.93%
same,"activity change, negative = inhibition",[3],2.75%
same,"activity change, negative = inhibition",[4],-2.37%
same,"activity change, negative = inhibition",[5],9.18%
